Results on 15 molecules are retold here after the supplement of paper PMC4604168 (melanoma cell lines).

This is one part of the list. Many values rest on one well or one pass, so single values are uncertain.
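Note: cells treated in 1,536-well plates, then fixed and DAPI-stained, with nuclei counted from automated high-throughput microscope images.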

The test system of this experiment is C32. In words: cell count relative to DMSO control; melanoma cells; higher = more viable cells. The conditions noted are these: library dose: standard library concentration; 72 h; first compound 2 µM.
`C[C@@H](N)c1ccc(C(=O)Nc2ccnc3[nH]ccc23)cc1` + COc1ccc(Cl)c(Nc2nc3ccccc3nc2NS(=O)(=O)c2cccc(NC(=O)C(C)(C)N)c2)c1 [XL147] (partner dose 4 µM) displayed a cell count of 77.9%. Regarding `CCCCCCCCCCCCCCCCCCOP(=O)([O-])OC1CC[N+](C)(C)CC1` [Perifosine] + C=CCn1c(=O)c2cnc(Nc3ccc(N4CCN(C)CC4)cc3)nc2n1-c1cccc(C(C)(C)O)n1 [MK1775] (partner dose 0.1 µM), the cell count came out at 85.4%. On to `CCCCCCCCCCCCCCCCCCOP(=O)([O-])OC1CC[N+](C)(C)CC1` [Perifosine] + CN1CCN(c2ccc3nc(-c4c(N)c5c(F)cccc5[nH]c4=O)[nH]c3c2)CC1 [Dovitinib] (partner dose 0.5 µM), for which the cell count amounted to 87.2%. On to `Cn1sc(=O)n(Cc2ccccc2)c1=O` + CN(NC(=O)CC(=O)NN(C)C(=S)c1ccccc1)C(=S)c1ccccc1 [STA4783] (partner dose 0.03 µM), for which the cell count was 33.9%. For `Cn1sc(=O)n(Cc2ccccc2)c1=O` + CO[C@@H]1[C@H](N(C)C(=O)c2ccccc2)C[C@H]2O[C@]1(C)n1c3ccccc3c3c4c(c5c6ccccc6n2c5c31)C(=O)NC4 [Midostaurin] (partner dose 0.4 µM) the value was 107%; for `Cn1sc(=O)n(Cc2ccccc2)c1=O` + C[C@]1(O)C[C@@H](c2nc(-c3ccc4ccc(-c5ccccc5)nc4c3)c3c(N)nccn32)C1 [OSI906] (partner dose 2 µM), 94.9%; for `Cn1sc(=O)n(Cc2ccccc2)c1=O` + C#Cc1cccc(Nc2ncnc3cc(OCCOC)c(OCCOC)cc23)c1 [erlotinib] (partner dose 4 µM), 91.1%. Then `C[C@@H](N)c1ccc(C(=O)Nc2ccnc3[nH]ccc23)cc1` + NC(=O)Nc1cc(-c2cccc(F)c2)sc1C(=O)N[C@H]1CCCNC1 [AZD7762] (partner dose 0.1 µM), with 68.2%; and `Cn1sc(=O)n(Cc2ccccc2)c1=O` + Nc1cccc2c1CN(C1CCC(=O)NC1=O)C2=O [lenalidomide] (partner dose 5 µM), with 86.5%; and `Cn1sc(=O)n(Cc2ccccc2)c1=O` + Cc1cc(N2CCOCC2)cc2[nH]c(-c3c(NC[C@@H](O)c4cccc(Cl)c4)cc[nH]c3=O)nc12 [BMS536924] (partner dose 1 µM), with 80.5%. In turn, `C[C@@H](N)c1ccc(C(=O)Nc2ccnc3[nH]ccc23)cc1` + Cn1sc(=O)n(Cc2ccccc2)c1=O [TDZD-8] (partner dose 2 µM) showed a cell count of 68.9%. In turn, `CCCCCCCCCCCCCCCCCCOP(=O)([O-])OC1CC[N+](C)(C)CC1` [Perifosine] + C[C@@H](N)c1ccc(C(=O)Nc2ccnc3[nH]ccc23)cc1 [RKI983] (partner dose 2 µM) came in with a cell count of 67.6%. For `CCCCCCCCCCCCCCCCCCOP(=O)([O-])OC1CC[N+](C)(C)CC1` [Perifosine] + CCCS(=O)(=O)Nc1ccc(F)c(C(=O)c2c[nH]c3ncc(Cl)cc23)c1F [PLX4720] (partner dose 0.4 µM) the value was 85.2%; for `CCCCCCCCCCCCCCCCCCOP(=O)([O-])OC1CC[N+](C)(C)CC1` [Perifosine] + Nc1ncn([C@H]2C[C@H](O)[C@@H](CO)O2)c(=O)n1 [decitabine] (partner dose 0.5 µM), 113%. As to `Cn1sc(=O)n(Cc2ccccc2)c1=O` + CNC(=O)c1cc(Oc2ccc(NC(=O)Nc3ccc(Cl)c(C(F)(F)F)c3)cc2)ccn1 [sorafenib] (partner dose 2 µM), the cell count was determined as 106%.
